The campaign covered roughly 50,000 compounds. About 800 (1.6%) showed an effect of 50% or more. The list shows a part of the results.
Molecular target: Bcl-2-like protein 10 (Homo sapiens) (UniProt Q9HD36)
Test: TR3 peptide-Bcl-B binding displacers, biochemical primary FP assay, phenotype converters (AID 1240);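 also: 0% = Bcl-B with tracer peptide and DMSO and 100% = tracer peptide lacking Bcl-B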
Details: GST-Bcl-B / FITC-TR3 peptide fluorescence polarization; stronger effect = higher value; compound at 3.75 mg/L

Sequence of UniProt Q9HD36 (Q9HD36 whole entry, looked up): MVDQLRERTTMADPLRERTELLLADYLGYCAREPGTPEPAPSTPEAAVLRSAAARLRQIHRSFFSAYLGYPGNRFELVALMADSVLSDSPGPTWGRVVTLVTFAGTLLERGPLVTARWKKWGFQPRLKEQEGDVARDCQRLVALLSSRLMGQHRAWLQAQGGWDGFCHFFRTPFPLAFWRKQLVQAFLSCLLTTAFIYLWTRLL

**Q.** Which displacement does the source give for `COc1ccc(C2CC(c3ccc(Br)cc3)=NN2C(=O)CCC(=O)O)cc1OC` (configuration not stated) here?
**A.** 6.1%

**Q.** Which displacement does the source give for `COc1ccc(C2=N/C(=C/c3ccc([N+](=O)[O-])cc3)C(=O)N2c2ccc(O)cc2)cc1` here?
**A.** 1.2%

**Q.** `Cc1ccc(OCCc2c(C)n[nH]c2C)cc1C` was tested. Which displacement did it give?
**A.** 14.6%

**Q.** With `CC(=O)NCCN=Cc1c(O)[nH]c2ccccc12` as the molecule, how does the displacement read?
**A.** 14%

**Q.** `CCOc1cc(C2NC(=S)NC(C)=C2C(=O)Nc2ccc(Cl)cc2)ccc1O` (configuration not stated) was tested. Which displacement did it give?
**A.** -3.2%

**Q.** `NC(=O)c1ccc(NC(=O)COc2cccc(Cl)c2)cc1` was tested. Which displacement did it give?
**A.** 1.7%

**Q.** `CCOC(=O)c1c(NC(=O)C(C(C)C)N2C(=O)c3ccccc3C2=O)sc(C)c1C` (configuration not stated) was tested. Which displacement did it give?
**A.** -16.7%

**Q.** Which displacement does the source give for `Nc1nc(-c2cccc(Br)c2)cs1` here?
**A.** -1.7%

**Q.** How did the displacement turn out when `OCn1nc(-c2ccccc2Br)oc1=S` was run?
**A.** 9.4%

**Q.** With `CCOc1cccc(-c2cc(C(=O)NCc3ccc4c(c3)OCO4)c3ccccc3n2)c1` as the molecule, how does the displacement read?
**A.** -6.2%

**Q.** How did the displacement turn out when `Cc1ccc(C2Nc3ccccc3C(=O)N2Cc2ccco2)cc1` (configuration not stated) was run?
**A.** 15.4%

**Q.** For `Nc1ccc(Sc2ccccc2[N+](=O)[O-])cc1`, which displacement is on record?
**A.** 10.9%

**Q.** For `COc1ccc(OCc2nc(-c3ccccn3)no2)cc1`, which displacement is on record?
**A.** 12.3%

**Q.** How did the displacement turn out when `Cc1cc(C)cc(NC(=O)c2c(-c3c(Cl)cccc3Cl)noc2C)c1` was run?
**A.** -1.8%

**Q.** Which displacement does the source give for `CCOC(=O)C(=CNc1ccc(OC)c(Cl)c1)C(=O)OCC` here?
**A.** 0%

**Q.** How did the displacement turn out when `COC(=O)CCC(=O)Nc1cccc(Br)c1` was run?
**A.** -19.7%

**Q.** For `Cc1ccccc1C(=O)NC(NC(=O)c1ccccc1C)c1cccc([N+](=O)[O-])c1`, which displacement is on record?
**A.** -2.7%

**Q.** With `Cc1ccc(C(=O)N/C(=C\c2cccc(Oc3ccccc3)c2)C(=O)NCc2ccncc2)cc1` as the molecule, how does the displacement read?
**A.** 20.4%

**Q.** How did the displacement turn out when `COC(=O)C1=C(O)/C(=C/c2cc(C)n(-c3ccccc3C(F)(F)F)c2C)N=C1C` was run?
**A.** 12.6%

**Q.** Which displacement does the source give for `Cc1ccc(-c2csc(NC(=O)c3ccc([N+](=O)[O-])cc3Cl)n2)cc1` here?
**A.** -10%

**Q.** For `COCCOC(=O)c1c(C)oc2ccc(OCc3ccc(F)cc3)cc12`, which displacement is on record?
**A.** 9.3%

**Q.** With `CCCN1C(=O)c2ccccc2NC1c1ccc(OC)c(COc2ccc(F)cc2)c1` (configuration not stated) as the molecule, how does the displacement read?
**A.** 11.6%

**Q.** Which displacement does the source give for `O=C(NCc1ccc2c(c1)OCO2)c1cccc([N+](=O)[O-])c1` here?
**A.** -9.4%

**Q.** `COc1ccc(N2C(=O)C(O)=C(C(=O)/C=C/c3ccccc3)C2c2ccc(Cl)cc2)cc1` (configuration not stated) was tested. Which displacement did it give?
**A.** -0.4%

**Q.** For `Cc1cc(-c2cc(Cl)ccc2O)n[nH]1`, which displacement is on record?
**A.** 24.8%

**Q.** How did the displacement turn out when `COc1ccc(NC(=O)c2ccccc2C)c(OC)c1` was run?
**A.** -5.1%

**Q.** How did the displacement turn out when `CC1(C)CC(=O)C(N=Nc2cc(C(F)(F)F)ccc2Cl)=C(O)C1` was run?
**A.** 2.6%

**Q.** Which displacement does the source give for `Cc1ccc(C(=O)CC(=O)c2ccccc2C)c(O)c1` here?
**A.** 15.9%

**Q.** How did the displacement turn out when `NC(=O)c1ccc(NC(=S)Nc2ccccc2)cc1` was run?
**A.** -3.3%

**Q.** Which displacement does the source give for `COC(=O)C1=C(C)NC(=O)NC1c1ccccc1Br` (configuration not stated) here?
**A.** -8.5%

**Q.** How did the displacement turn out when `O=C(/C=C/c1ccco1)Nc1ccc(O)cc1C(=O)O` was run?
**A.** 9.8%

**Q.** How did the displacement turn out when `COC(=O)C1=C(C)NC(=S)NC1c1sccc1C` (configuration not stated) was run?
**A.** 4.9%

**Q.** `CN(C)c1ccc(/C=C2\N=C(c3ccccc3Cl)OC2=O)cc1` was tested. Which displacement did it give?
**A.** -11.9%

**Q.** For `CC1(C)OC(=O)C(=Cc2ccc(-c3ccc(Cl)cc3Cl)o2)C(=O)O1`, which displacement is on record?
**A.** 34.4%

**Q.** For `COCCCNC(=O)c1ccc(NC(C)=O)cc1`, which displacement is on record?
**A.** 2%

**Q.** `Cc1ccc(/C=N\N2CCN(c3ccc(Cl)cc3)CC2)cc1` was tested. Which displacement did it give?
**A.** -5.3%

**Q.** Which displacement does the source give for `O=C(Nc1nc2ccccc2s1)C1CCCCC1` here?
**A.** 2.4%

**Q.** For `CCCC1=C(C(=O)OCC)C(c2ccc(Cl)cc2Cl)NC(=O)N1` (configuration not stated), which displacement is on record?
**A.** -13.5%

**Q.** Which displacement does the source give for `O=C(Nc1c(C(=O)N2CCOCC2)cnn1-c1ccccc1)c1ccccc1` here?
**A.** 40.9%

**Q.** `COCCOC(=O)c1c(C)oc2ccc(OCc3ccc(Br)cc3)cc12` was tested. Which displacement did it give?
**A.** 13.6%

**Q.** `O=[N+]([O-])c1cccc(S(=O)(=O)Nc2cc(C(F)(F)F)ccc2Cl)c1` was tested. Which displacement did it give?
**A.** 5.2%

**Q.** With `O=C(CN(c1ccc(Cl)cc1Cl)S(=O)(=O)c1ccccc1)NC1CCCC1` as the molecule, how does the displacement read?
**A.** 34.8%

**Q.** How did the displacement turn out when `CC1=C(C(=O)Nc2ccc(Cl)cc2)C(c2ccc(N(C)C)cc2)NC(=S)N1` (configuration not stated) was run?
**A.** -9.2%

**Q.** How did the displacement turn out when `O=C(COc1ccc(Br)cc1)NC1CCCCC1` was run?
**A.** -0.3%

**Q.** How did the displacement turn out when `Cc1ccc(NC2=CC(=O)C=CC2=O)c(C)c1` was run?
**A.** 17.6%

**Q.** For `COc1cccc(NC(=O)c2ccc(CN3CCN(Cc4ccccc4)CC3)cc2)c1`, which displacement is on record?
**A.** 4.6%

**Q.** `O=C(O)c1cccc(N2C(=O)c3cccnc3C2=O)c1` was tested. Which displacement did it give?
**A.** 30.3%

**Q.** Which displacement does the source give for `O=C(c1cccc(Cl)c1)N1CCN(c2cccc(Cl)c2)CC1` here?
**A.** 11.2%

**Q.** `O=C(Cc1ccc(Cl)cc1)Nc1ccccc1I` was tested. Which displacement did it give?
**A.** 0.6%

**Q.** How did the displacement turn out when `C=CCc1cccc(/C=N\NC(=O)CN2CCN(Cc3ccccc3)CC2)c1O` was run?
**A.** -18.1%

**Q.** Which displacement does the source give for `CN1CCN(c2ccc([N+](=O)[O-])cc2C(=O)Nc2ccc(Cl)c(Cl)c2)CC1` here?
**A.** 7.1%

**Q.** Which displacement does the source give for `O=C(Nc1ccccc1Br)c1ccc(OC(F)F)cc1` here?
**A.** 10.1%

**Q.** With `COC(=O)C1=C(C)NC(C)=C(C(=O)OC)C1c1c(F)cccc1Cl` as the molecule, how does the displacement read?
**A.** -0.4%

**Q.** With `CCOc1ccccc1/C=C/C(=O)c1ccc(Br)cc1` as the molecule, how does the displacement read?
**A.** 10.2%

**Q.** `O=C(CSc1nc2ccccc2[nH]1)c1ccc2c(c1)Cc1ccccc1-2` was tested. Which displacement did it give?
**A.** -9.4%

**Q.** With `Cc1ccc(OCC(O)Cn2c3ccccc3c3ccccc32)cc1C` (configuration not stated) as the molecule, how does the displacement read?
**A.** 15.9%

**Q.** How did the displacement turn out when `Cc1ccc(NC(=O)c2ccc3c(c2)OCO3)cc1[N+](=O)[O-]` was run?
**A.** 4.9%

**Q.** For `O=C(Nc1ccc(Cl)c(Cl)c1)Nc1nnc(CCc2ccccc2)s1`, which displacement is on record?
**A.** 5.6%

**Q.** For `CCOC(=O)c1c(NC(=O)c2ccc(S(=O)(=O)N3CCCCC3)cc2)sc(C)c1C`, which displacement is on record?
**A.** -4.5%

**Q.** For `O=C(/C(=N\O)n1cncn1)c1ccc(Cl)cc1Cl`, which displacement is on record?
**A.** 9.2%

**Q.** For `COc1ccc(Cl)cc1NC(=O)COc1ccc(C)cc1Br`, which displacement is on record?
**A.** 3.1%

**Q.** How did the displacement turn out when `CCN(CC)c1nc(-c2ccccc2O)nc2ccccc12` was run?
**A.** -2.1%

**Q.** Which displacement does the source give for `O=C(c1ccccc1)N1CCN(CCN2C(=O)c3cccc4cccc(c34)C2=O)CC1` here?
**A.** -12%

**Q.** `CCOC(=O)C1CCN(Cn2nc(-c3ccc(C)cc3)oc2=S)CC1` was tested. Which displacement did it give?
**A.** -17.9%

**Q.** Which displacement does the source give for `O=C1NC(=O)/C(=C\c2cccc(Cl)c2)S1` here?
**A.** -4.9%

**Q.** Which displacement does the source give for `COc1ccc2oc(=O)c(-c3csc(Nc4ccccc4C)n3)cc2c1` here?
**A.** 1.1%

**Q.** `COc1cccc(N2C(=O)/C(=C/c3ccc4c(c3)OCO4)SC2=S)c1` was tested. Which displacement did it give?
**A.** 7.4%

**Q.** How did the displacement turn out when `Cc1ccc(C(=O)NC(Cc2c[nH]c3ccccc23)C(=O)O)o1` (configuration not stated) was run?
**A.** 13.6%

**Q.** With `CCOC(=O)COc1ccc(/C=C2/C(=O)NN(c3ccc(F)cc3)C2=O)cc1OC` as the molecule, how does the displacement read?
**A.** 0.7%

**Q.** Which displacement does the source give for `Cc1ccnc(NC(=O)Cc2ccc(Cl)cc2)c1` here?
**A.** 7.6%

**Q.** How did the displacement turn out when `COc1ccc([N+](=O)[O-])cc1N(CC(O)CN1CCCCC1)S(=O)(=O)c1ccc(C)cc1` (configuration not stated) was run?
**A.** -8.5%

**Q.** With `O=C(c1ccccc1F)N1CCN(c2ccc(C(F)(F)F)cc2[N+](=O)[O-])CC1` as the molecule, how does the displacement read?
**A.** 8.9%
